# Assay results reported in the supplement of paper PMC12217912.
# The other results are listed elsewhere or left out. The full chains were built here from the parent and the listed change. Inactive controls read about 0.05.
# B1: TEV protease; numbered along this chain (parent)
# chain: MGESLFKGPRDYNPISSSICHLTNESDGHTTSLYGIGFGPFIITNKHLFRRNNGTLVVQSLHGVFKVKDTTTLQQHLVDGRDMIIIRMPKDFPPFPQKLKFREPQREERICLVTTNFQTKSMSSMVSDTSCTFPSGDGIFWKHWIQTKDGQCGSPLVSTRDGFIVGIHSASNFTNTNNYFTSVPKNFMELLTNQEAQQWVSGWRLNADSVLWGGHKVFMVKPEEPFQPVKEATQL
# Variants of: B1
# Test: raw area under fraction-flipped curve 0-4 h after induction (AUC4h, not background-subtracted), DNA-recorder readout of cleavage of the substrate (dimensionless); higher = more cleavage of the substrate by the protease variant
# Details: temperature: 34 °C; time window: 0-4 h after rhamnose induction
# 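Also: Bxb1 expression induced with 0.2% (w/v) L-rhamnose at OD600 near 0.5, cultures sampled hourly, flipped fraction per protease–substrate barcode pair counted by paired-end Illumina sequencing.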
Variant,area with substrate ENLCFQS,area with substrate ENLEFQS,area with substrate ENLFFQS,area with substrate ENLGFQS,area with substrate ENLIFQS,area with substrate ENLKFQS,area with substrate ENLLFQS,area with substrate ENLNFQS,area with substrate ENLQFQS,area with substrate ENLRFQS,area with substrate ENLSFQS,area with substrate ENLVFQS,area with substrate ENLDFQS,area with substrate ENLHFQS,area with substrate ENLPFQS,area with substrate ENLWFQS,area with substrate ENLMFQS,area with substrate ENLTFQS
MGESLFKGPRDYNPISSSICHLTNESDGHTTSLYGIGFGPFIITNKHLFRRNNGTLVVQSLHGVFKVKDTTTLQQHLVDGRDMIIIRMPKDFPPFPQKLKFREPQREERICLVTTNFQTKSMSSMVSDTSCTFPSGDGIFWKHWIQTKDGQCGSPLVSTRDGFIVGIHSASNFTNTNNYFTSVPKNFMELLTNQEAQQWVSDWRLNADSVLWGGHKVFMVKPEEPFQPVKEATQL [G202D],0.0665,0.053,0.0554,0.0861,0.0569,0.0682,0.0457,0.0599,0.0724,0.0856,0.0451,0.0608,–,–,–,–,–,–
MGESLFKGPRDYNPISSSICHLTNESDGHTTSLYGIGFGPFIITNKHLFRRNNGTLVVQSLHGVFKVKDTTTLQQHLVDGRDMIIIRMPKDFPPFPQKLKFREPQREERICLVTTNFQTKSMSSMVSDTSCTFPSGDGIFWKHWIQTKDGQCGSPLVSTRDGFIVGIHSASNFTITNNYFTSVPKNFMELLTNQEAQQWVSGWRLNADSVLWGGHKVFMVKPEEPFQPVKEATQL [N175I],0.0499,0.0625,0.092,0.0698,–,–,0.0603,0.0648,–,0.0838,–,–,0.0607,0.0545,0.0502,0.0683,–,–
MGESLFKGPRDYNPISSSICHLTNESDGHTTSLYGIGFGPFIITNKHLFRRNNGTLVVQSLHGVFKVKDTTTLQQHLVDGRDMIIIRMPKDFPPFPQKLKFREPQREERICLVTTNFQTKSMSSMVSDTSCTFPSGDGIFWKHWIQTKDDQCGSPLVSTRDGFIVGIHSASNFTNTNNYFTSVPKNFMELLTNQEAQQWVSGWRLNADSVLWGGHKVFMVKPEEPFQPVKEATQL [G150D],0.0472,0.0665,0.0405,–,–,0.0327,–,0.051,0.0641,–,0.0428,–,0.0651,0.0542,–,–,–,–
MGESLFKGPRDYNPISSSICHLTNESDGHTTSLYGIGFGPFIITNKHLFRRNNGTLVVQSLHGVFKVKDTTTLQQHLVDGRDMIIIRMPKDFPPFPQKLKFREPQREERICLVTTNFQTKSMSSMVSDTSCTFPSGDGIFWKHWIQTKDIQCGSPLVSTRDGFIVGIHSASNFTNTNNYFTSVPKNFMELLTNQEAQQWVSGWRLNADSVLWGGHKVFMVKPEEPFQPVKEATQL [G150I],0.0688,0.0623,0.0622,–,0.0918,0.0552,0.0707,0.063,0.0521,0.05,0.0566,–,0.0615,0.0307,0.0462,0.055,0.0629,–
MGESLFKGPRDYNPISSSICHLTNESDGHTTSLYGIGFGPFIITNKHLFRRNNGTLVVQSLHGVFKVKDTTTLQQHLVDGRDMIIIRMPKDFPPFPQKLKFREPQREERICLVTTNFQTKSMSSMVSDTSCTFPSGDGIFWKHWIQTKDGQCGSPLVSTRDGFIVGIHSASNFTNTNNYMTSVPKNFMELLTNQEAQQWVSGWRLNADSVLWGGHKVFMVKPEEPFQPVKEATQL [F180M],0.126,–,–,0.0653,–,–,–,0.0638,0.0496,0.0657,0.023,–,0.0544,0.0607,–,0.0685,–,–
MGESLFKGPRDYNPISSSICHLTNESDGHTTSLYGIGFGPFIITNKHLFRRNNGTLVVQSLHGVFKVKDTTTLQQHLVDGRDMIIIRMPKDFPPFPQKLKFREPQREERICLVTTNFQTKSMSSMVSDTSCTFPSGDGIFWKHWIQTKDGQCGSPLVSTRDWFIVGIHSASNFTNTNNYFTSVPKNFMELLTNQEAQQWVSGWRLNADSVLWGGHKVFMVKPEEPFQPVKEATQL [G162W],0.0431,–,0.116,–,0.0767,0.0647,–,0.068,0.1,–,0.0595,0.0718,0.0613,0.071,–,0.0784,–,–
MGESLFKGPRDYNPISSSICHLTNESDGHTTSLYGIGFGPFIITNKHLFRRNNGTLVVQSLHGVFKVKDTTTLQQHLVDGRDMIIIRMPKDFPPFPQKLKFREPQREERICLVTTNFQTKSMSSMVSDTSCTFPSGDGIFWKHWIQTKDGQCGSPLVSTRDKFIVGIHSASNFTNTNNYFTSVPKNFMELLTNQEAQQWVSGWRLNADSVLWGGHKVFMVKPEEPFQPVKEATQL [G162K],0.0818,–,0.0626,0.0892,0.0927,0.0674,–,–,–,0.0637,–,–,0.0648,0.0647,0.0614,–,–,–
MGESLFKGPRDYNPISSSICHLTNESDGHTTSLYGIGFGPFIITNKHLFRRNNGTLVVQSLHGVFKVKDTTTLQQHLVDGRDMIIIRMPKDFPPFPQKLKFREPQREERICLVTTNFQTKSMSSMVSDTSCTFPSGDGIFWKHWIHTKDGQCGSPLVSTRDGFIVGIHSASNFTNTNNYFTSVPKNFMELLTNQEAQQWVSGWRLNADSVLWGGHKVFMVKPEEPFQPVKEATQL [Q146H],0.094,0.0636,0.0675,0.0595,0.0799,0.0786,–,0.0745,0.0585,0.0731,0.0703,0.0642,0.0635,0.0647,0.069,0.0819,–,0.0647
MGESLFKGPRDYNPISSSICHLTNESDGHTTSLYGIGFGPFIITNKHLFRRNNGTLVVQSLHGVFKVKDTTTLQQHLVDGRDMIIIRMPKDFPPFPQKLKFREPQREERICLVTTNFQTKSMSSMVSDTSCTFPSGDGIFWKHWISTKDGQCGSPLVSTRDGFIVGIHSASNFTNTNNYFTSVPKNFMELLTNQEAQQWVSGWRLNADSVLWGGHKVFMVKPEEPFQPVKEATQL [Q146S],0.0759,–,–,0.0704,–,–,–,–,–,–,–,0.0724,0.0713,0.0355,–,–,–,–
MGESLFKGPRDYNPISSSICHLTNESDGHTTSLYGIGFGPFIITNKHLFRRNNGTLVVQSLHGVFKVKDTTTLQQHLVDGRDMIIIRMPKDFPPFPQKLKFREPQREERICLVTTNFQTKSMSSMVSDTSCTFPSGDGIFWKHWIQTKDGQCGSPLVSTRDGFIVGIHSASNFTNTNGYFTSVPKNFMELLTNQEAQQWVSGWRLNADSVLWGGHKVFMVKPEEPFQPVKEATQL [N178G],0.0448,–,–,–,0.088,–,–,0.0682,–,0.0484,–,0.075,0.059,–,–,0.0651,–,–
MGESLFKGPRDYNPISSSICHLTNESDGHTTSLYGIGFGPFIITNKHLFRRNNGTLVVQSLHGVFKVKDTTTLQQHLVDGRDMIIIRMPKDFPPFPQKLKFREPQREERICLVTTNFQTKSMSSMVSDTSCTFPSGDGIFWKHWIQTKDGQCGSPLVSTRDGFIVGIHSASIFTNTNNYFTSVPKNFMELLTNQEAQQWVSGWRLNADSVLWGGHKVFMVKPEEPFQPVKEATQL [N172I],0.0595,0.0437,–,–,0.0457,0.0647,0.0585,0.0654,–,0.0665,0.0556,–,–,–,0.0458,–,–,–
MGESLFKGPRDYNPISSSICHLTNESDGHTTSLYGIGFGPFIITNKHLFRRNNGTLVVQSLHGVFKVKDTTTLQQHLVDGRDMIIIRMPKDFPPFPQKLKFREPQREERICLVTTNFQTKSMSSMVSDTSCTFPSGDGIFWKHWIQTKDGQCGSPLVSTRDGFIVGIHSASTFTNTNNYFTSVPKNFMELLTNQEAQQWVSGWRLNADSVLWGGHKVFMVKPEEPFQPVKEATQL [N172T],0.0562,–,0.0597,0.0648,0.0842,–,–,0.0897,–,–,–,–,0.067,–,0.0558,0.063,0.0604,–
MGESLFKGPRDYNPISSSICHLTNESDGHTTSLYGIGFGPFIITNKHLFRRNNGTLVVQSLHGVFKVKDTTTLQQHLVDGRDMIIIRMPKDFPPFPQKLKFREPQREERICLVTTNFQTKSMSSMVSDTSCTFPSGDGIFWKHWIQTKDGDCGSPLVSTRDGFIVGIHSASNFTNTNNYFTSVPKNFMELLTNQEAQQWVSGWRLNADSVLWGGHKVFMVKPEEPFQPVKEATQL [Q151D],0.0577,0.0593,0.0846,0.0787,0.0893,0.052,–,0.0668,–,0.072,0.059,0.0902,0.0532,0.087,0.0543,0.0896,–,–
MGESLFKGPRDYNPISSSICHLTNESDGHTTSLYGIGFGPFIITNKHLFRRNNGTLVVQSLHGVFKVKDTTTLQQHLVDGRDMIIIRMPKDFPPFPQKLKFREPQREERICLVTTNFQTKSMSSMVSDTSCTFPSGDGIFWKHWLQTKDGQCGSPLVSTRDGFIVGIHSASNFTNTNNYFTSVPKNFMELLTNQEAQQWVSGWRLNADSVLWGGHKVFMVKPEEPFQPVKEATQL [I145L],0.0654,0.0585,0.0965,–,0.0769,–,–,–,–,–,–,–,–,–,–,–,–,0.0689
MGESLFKGPRDYNPISSSICHLTNESDGHTTSLYGIGFGPFIITNKHLFRRNNGTLVVQSLHGVFKVKDTTTLQQHLVDGRDMIIIRMPKDFPPFPQKLKFREPQREERICLVTTNFQTKSMSSMVSDTSCTFPSGDGIFWKHWIQTKDGQCGSPLVSTRDGFIVGIHSASNFTNTNNYFTSVPKNFMELLTNQEAAQWVSGWRLNADSVLWGGHKVFMVKPEEPFQPVKEATQL [Q197A],0.0591,0.109,0.0938,0.083,0.056,–,–,0.0654,0.0497,0.0744,–,–,0.0554,0.0403,0.0526,–,–,–
MGESLFKGPRDYNPISSSICHLTNESDGHTTSLYGIGFGPFIITNKHLFRRNNGTLVVQSLHGVFKVKDTTTLQQHLVDGRDMIIIRMPKDFPPFPQKLKFREPQREERICLVTTNFQTKSMSSMVSDTSCTFPSGDGIFWKHWIQTKDGQCGSPLVSTRIGFIVGIHSASNFTNTNNYFTSVPKNFMELLTNQEAQQWVSGWRLNADSVLWGGHKVFMVKPEEPFQPVKEATQL [D161I],0.0623,0.0585,0.0645,0.0702,0.0587,0.0642,0.0507,0.0414,0.0529,–,0.0285,–,0.0532,0.0646,0.0334,0.0633,0.0636,–
MGESLFKGPRDYNPISSSICHLTNESDGHTTSLYGIGFGPFIITNKHLFRRNNGTLVVQSLHGVFKVKDTTTLQQHLVDGRDMIIIRMPKDFPPFPQKLKFREPQREERICLVTTNFQTKSMSSMVSDTSCTFPSGDGIFWKHWIQTKDGQCGSPLVSTRDGFIVGIHSASNFWNTNNYFTSVPKNFMELLTNQEAQQWVSGWRLNADSVLWGGHKVFMVKPEEPFQPVKEATQL [T174W],0.07,–,0.081,0.0613,0.0616,0.059,0.0805,0.0664,–,0.0646,0.0479,0.0762,0.0597,–,–,–,0.0245,0.0401
MGESLFKGPRDYNPISSSICHLTNESDGHTTSLYGIGFGPFIITNKHLFRRNNGTLVVQSLHGVFKVKDTTTLQQHLVDGRDMIIIRMPKDFPPFPQKLKFREPQREERICLVTTNFQTKSMSSMVSDTSCTFPSGDGIFWKHWIQTKDGQCGSPLPSTRDGFIVGIHSASNFTNTNNYFTSVPKNFMELLTNQEAQQWVSGWRLNADSVLWGGHKVFMVKPEEPFQPVKEATQL [V157P],0.0472,0.0466,0.0456,–,–,0.0479,0.057,0.0594,–,0.0488,0.0554,–,0.0535,0.0512,0.0526,–,–,0.0578
MGESLFKGPRDYNPISSSICHLTNESDGHTTSLYGIGFGPFIITNKHLFRRNNGTLVVQSLHGVFKVKDTTTLQQHLVDGRDMIIIRMPKDFPPFPQKLKFREPQREERICLVTTNFQTKSMSSMVSDTSCTFPSGDGIFWKHWIQTKDGQCGSPLVSTRDGFIWGIHSASNFTNTNNYFTSVPKNFMELLTNQEAQQWVSGWRLNADSVLWGGHKVFMVKPEEPFQPVKEATQL [V165W],0.0557,–,0.0657,–,0.0438,0.0431,0.068,0.0541,0.0527,0.0577,0.0592,–,–,0.0521,0.0781,–,–,–
